Experimental data from the supplement of paper PMC4604168 (melanoma cell lines).
This is one part of the list. Many values rest on one well or one pass, so single values are uncertain.

Legend:
Assay in all cases: cell count relative to DMSO control; melanoma cells; higher = more viable cells
Settings in all cases: library dose: standard library concentration; 72 h
G361 = tested on: G361
IPC-298 = tested on: IPC-298
IST-MEL1 = tested on: IST-MEL1
LB2518-MEL = tested on: LB2518-MEL
LOXIMVI = tested on: LOXIMVI
MEL-HO = tested on: MEL-HO
MZ2-MEL = tested on: MZ2-MEL
MeWo = tested on: MeWo
RPMI7951 = tested on: RPMI7951
RVH-421 = tested on: RVH-421
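Further: cells treated in 1,536-well plates, then fixed and DAPI-stained, with nuclei counted from automated high-throughput microscope images.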

Structure (SMILES)	cell count (G361)	cell count (IPC-298)	cell count (IST-MEL1)	cell count (LB2518-MEL)	cell count (LOXIMVI)	cell count (MEL-HO)	cell count (MZ2-MEL)	cell count (MeWo)	cell count (RPMI7951)	cell count (RVH-421)
Cc1cn(-c2cc(NC(=O)c3ccc(C)c(Nc4nccc(-c5cccnc5)n4)c3)cc(C(F)(F)F)c2)cn1 [nilotinib] + CCCCCCCCCCCC1=C(O)C(=O)C=C(O)C1=O [Embelin] (first compound 1 µM, partner dose 6 µM)	72.5%	74.1%	77.5%	77.3%	127%	81.5%	82.1%	101%	98.2%	80.1%
Cn1c(=O)n(-c2ccc(C(C)(C)C#N)cc2)c2c3cc(-c4cnc5ccccc5c4)ccc3ncc21 + CC(C)C[C@H](NC(=O)[C@H](Cc1ccccc1)NC(=O)c1cnccn1)B(O)O [Bortezomib] (first compound 0.02 µM, partner dose 0.005 µM)	1.7%	22.3%	21.7%	6.78%	21.2%	41.5%	4.59%	22.2%	9.37%	32.9%
Cc1cc(Nc2cc(N3CCN(C)CC3)nc(/C=C/c3ccccc3)n2)n[nH]1 + O=C(Nc1cccc(Cl)c1)Nc1ncc(CCNc2ncnc3ccsc23)s1 [SNS314] (first compound 0.2 µM, partner dose 0.004 µM)	83.4%	93.8%	60.5%	70.4%	70.8%	82.8%	93.3%	56.4%	50.3%	79.5%
Cc1cc(Nc2cc(N3CCN(C)CC3)nc(/C=C/c3ccccc3)n2)n[nH]1 + Oc1nc(-c2ccc(C(F)(F)F)cc2)nc2c1CSCC2 [XAV939] (first compound 0.2 µM, partner dose 10 µM)	91.7%	93.5%	79.9%	79.5%	89.4%	79.1%	94%	77.8%	83.7%	102%
Cc1cn(-c2cc(NC(=O)c3ccc(C)c(Nc4nccc(-c5cccnc5)n4)c3)cc(C(F)(F)F)c2)cn1 [nilotinib] + Clc1ccc(Nc2nnc(Cc3ccncc3)c3ccccc23)cc1 [vatalanib] (first compound 1 µM, partner dose 10 µM)	72.8%	72.1%	67.2%	105%	75.6%	56%	62.8%	59.8%	59.6%	74.6%
Cc1cc(Nc2cc(N3CCN(C)CC3)nc(/C=C/c3ccccc3)n2)n[nH]1 + Cc1nc(Nc2ncc(C(=O)Nc3c(C)cccc3Cl)s2)cc(N2CCN(CCO)CC2)n1 [dasatanib] (first compound 0.2 µM, partner dose 0.02 µM)	88.5%	93.9%	88.8%	71.3%	26.8%	99.1%	61%	77.1%	60.9%	64.2%
Cn1c(=O)n(-c2ccc(C(C)(C)C#N)cc2)c2c3cc(-c4cnc5ccccc5c4)ccc3ncc21 + Cc1cc([N+](=O)[O-])ccc1NS(=O)(=O)c1cc(Cl)ccc1Cl [FH535] (first compound 0.02 µM, partner dose 5 µM)	39.9%	42.4%	46.2%	76%	63.6%	42.5%	45.5%	57.1%	63.5%	65.2%
COc1ccc(C2=N[C@@H](c3ccc(Cl)cc3)[C@@H](c3ccc(Cl)cc3)N2C(=O)N2CCNC(=O)C2)c(OC(C)C)c1 [Nutlin-3] + C[C@]1(O)C[C@@H](c2nc(-c3ccc4ccc(-c5ccccc5)nc4c3)c3c(N)nccn32)C1 [OSI906] (first compound 0.5 µM, partner dose 2 µM)	63.8%	63.3%	102%	56.3%	79.7%	92%	76.1%	78.7%	93.3%	80.1%
Cc1cc(Nc2cc(N3CCN(C)CC3)nc(/C=C/c3ccccc3)n2)n[nH]1 + C[C@@H]1CCN(C(=O)CC#N)C[C@@H]1N(C)c1ncnc2[nH]ccc12 [CP690550] (first compound 0.2 µM, partner dose 5 µM)	77.5%	82.2%	77.2%	78.3%	96.3%	86.5%	112%	87.5%	82%	81.2%
COc1ccc(C2=N[C@@H](c3ccc(Cl)cc3)[C@@H](c3ccc(Cl)cc3)N2C(=O)N2CCNC(=O)C2)c(OC(C)C)c1 [Nutlin-3] + O=C(Nc1ccccc1)c1cc([N+](=O)[O-])ccc1Cl [GW9662] (first compound 0.5 µM, partner dose 10 µM)	60.8%	93.1%	90.1%	65.7%	44.3%	81.4%	76.6%	80.6%	82.2%	52.5%
Cc1cc(Nc2cc(N3CCN(C)CC3)nc(/C=C/c3ccccc3)n2)n[nH]1 + O=c1cc(-c2cccc3c2Sc2ccccc2S3)oc(N2CCOCC2)c1 [KU55933] (first compound 0.2 µM, partner dose 5 µM)	72.8%	90.5%	94.3%	73.9%	100%	81.6%	110%	95.2%	49.3%	115%
